Results from FireProtDB (doi:10.1016/0014-5793(95)00846-2).

Conditions: Gallus gallus; pH 9.5; 20 °C; Thermal; CD; sodium carbonate 50 mM; reversible: Unknown

Substance: Lysozyme C wild type (sequence left out)
- unfolding free energy: 12.7 kcal/mol
